Hit rate of the full screen: of about 48,000 compounds, about 550 (1.1%) were called active. Another 4% or so got no clear call; they are omitted. No stated cut-off is given here; in the data, active means potency below about 15 µM; inconclusive means mostly about 16 µM to 33 µM; inactive means weaker than that. Some of the results follow.
These molecules were tested against Lysosomal acid glucosylceramidase (Homo sapiens) (UniProt P04062) (assay: Glucocerebrosidase). Details: purified enzyme, resorufin glucoside fluorescence (screen aimed at inhibitors), 20 min.
UniProt P04062, sequence (P04062 whole entry, looked up): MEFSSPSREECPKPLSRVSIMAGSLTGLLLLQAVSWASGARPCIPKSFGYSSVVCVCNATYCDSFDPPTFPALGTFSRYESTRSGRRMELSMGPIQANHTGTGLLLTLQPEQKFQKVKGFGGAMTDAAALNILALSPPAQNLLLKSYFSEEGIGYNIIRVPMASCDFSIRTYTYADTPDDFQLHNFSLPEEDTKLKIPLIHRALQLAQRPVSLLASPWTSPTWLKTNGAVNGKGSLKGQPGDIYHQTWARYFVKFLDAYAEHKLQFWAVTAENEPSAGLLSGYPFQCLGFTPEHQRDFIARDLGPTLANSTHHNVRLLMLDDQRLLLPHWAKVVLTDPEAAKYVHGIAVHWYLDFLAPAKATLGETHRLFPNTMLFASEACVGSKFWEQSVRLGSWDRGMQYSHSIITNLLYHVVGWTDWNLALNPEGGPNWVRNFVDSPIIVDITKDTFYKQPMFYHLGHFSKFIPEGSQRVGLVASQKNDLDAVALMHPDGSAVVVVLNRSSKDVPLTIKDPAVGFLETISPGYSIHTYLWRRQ
Method in brief: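 Wild-type enzyme at 0.2 nM final in 50mM citric acid/KH2PO4, 10mM sodium taurocholate, 0.01% tween-20, pH 5.9, with resorufin beta-D-glucopyranoside at 30 uM final. Compounds titrated, 20 min at RT, red fluorescence read; AC50 from titration.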
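Further: the screen sought inhibitors.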
Potency means the concentration at half of the fitted maximal effect.

Potency, inactive:
CC(=O)c1cc2c(cc1NC(=O)Nc1cccc(Cl)c1)OCCO2 > 76.9 µM
CC(C)CCN1C(=O)CCC1(C)C(=O)NC1CCCCCC1 (stereo unspecified) > 76.9 µM
CCOC(=O)C1=C(C)OC(N)=C(C#N)C1c1c(C)nn(-c2ccc(C)cc2)c1Cl (stereo unspecified) > 76.9 µM
Cc1ccc(-c2nnn(CC(=O)N(CCO)C(C(=O)NC(C)(C)C)c3ccncc3)n2)cc1 (stereo unspecified) > 76.9 µM
CCC(=O)Nc1ccc2nc(C3CC3)n(Cc3ccccc3)c(=O)c2c1 > 76.9 µM
CSc1nnc(-c2ccc(NC(=O)CCc3ccccc3)cc2)n1C > 76.9 µM
CC(=O)/C(C(=N)N1CCN(c2cccc(Cl)c2)CC1)=C(\C)O > 76.9 µM
CC(=O)Oc1ccc(Oc2ccc(-c3noc(C)n3)cc2)cc1 > 76.9 µM
Cc1cc(C)nc(SCCn2c(N3CCC(C)CC3)nc3c2c(=O)n(C)c(=O)n3C)n1 > 76.9 µM
OC12CCCCC1C(c1ccc3c(c1)OCO3)N(Cc1ccccc1F)CC2 (stereo unspecified) > 76.9 µM
O=C(CN1CCCCCC1)Nc1cccc2c1OCO2 > 76.9 µM
Cc1cc(NC(=O)C2CCN(S(=O)(=O)Cc3ccccc3)CC2)ccc1-n1cnnn1
COCCCNC(=O)c1ccccc1NS(C)(=O)=O > 76.9 µM
Cc1ccc(C(=O)N2CCN(C(=O)CN3CCCC3)C2)cc1 > 76.9 µM
O=C(CN1CCN(CC(=O)Nc2ccccc2Cl)CC1)Nc1ccc2c(c1)OCCO2 > 76.9 µM
O=C(COC(=O)CCC(=O)Nc1nccs1)NCc1ccco1 > 76.9 µM
COc1ccc2cc3cc(C(=O)NCc4ccc5c(c4)OCO5)oc3nc2c1 > 76.9 µM
O=C(NCc1cccs1)c1nc2c(nnn2Cc2ccccc2Cl)c(=O)[nH]1 > 76.9 µM
COc1ccc(C(=O)Oc2cccnc2)cc1OC > 76.9 µM
Cn1c(N2CCCC2)nc2c1c(=O)n(Cc1ccc(Cl)cc1)c(=O)n2C > 76.9 µM
COc1ccc2c(c1OC)C(=O)N(c1ncn[nH]1)C2 > 76.9 µM
O=C1CC(CCC(=O)NC2CC2)c2ccccc2N1 (stereo unspecified) > 76.9 µM
CCOc1ccccc1-n1c(SCC(=O)N(CC)CC)nnc1-c1ccccn1 > 76.9 µM
CCOC(=O)N1CCN(C(=O)c2ccccc2N(C)S(C)(=O)=O)CC1 > 76.9 µM
CCN(CC)S(=O)(=O)c1ccc(OC(C)C)nc1 > 76.9 µM
O=C(Cc1ccccc1)Nc1ccccc1N1CCN(c2ccccc2)CC1 > 76.9 µM
CC(=O)N(Cc1cc2ccc(C)c(C)c2n2nnnc12)C1CCCC1 > 76.9 µM
COc1ccccc1NC(=O)COC(=O)CNC(=O)c1ccc(OC)c(OC)c1 > 76.9 µM
CCCc1nc(SCC(=O)Nc2cc(C)on2)c2ccccc2n1 > 76.9 µM
CCCn1nnc(NC(=O)c2cc3ccccc3o2)n1 > 76.9 µM
Cc1ccc(C(=O)Nc2ccc(O)c(C(=O)O)c2)o1 > 76.9 µM
CCOC(=O)CSc1nnc2n1C(C)(C)Cc1ccccc1-2 > 76.9 µM
Cn1c(=O)c2c(ncn2CC(O)CNc2ccc(Cl)cc2)n(C)c1=O (stereo unspecified) > 76.9 µM
O=C(CCCn1c(=O)oc2ccccc21)Nc1cccnc1 > 76.9 µM
COc1cccc(-n2c(SCC(=O)O)nnc2-c2cccnc2)c1 > 76.9 µM
Cc1csc(NC(=O)CSc2nnc(-c3ccco3)n2C)n1 > 76.9 µM
COc1cccc(C(=O)N(Cc2cc3cc(C)ccc3[nH]c2=O)CC2CCCO2)c1 (stereo unspecified) > 76.9 µM
O=C(COC(=O)c1ccccc1F)c1ccc(-n2nncc2-c2ccco2)cc1 > 76.9 µM
O=C(Nc1ccccn1)c1cc(-n2cnnc2)ccc1Cl > 76.9 µM
O=C(c1ccc2c(c1)OCCO2)C1CCN(S(=O)(=O)c2ccccc2F)CC1 > 76.9 µM
CC1CCCN(c2nc3ccccc3nc2C(C#N)C(=O)OC2CCCCC2)C1 (stereo unspecified) > 76.9 µM
Cc1nc(C)c(C(=O)C2=C(O)C(=O)N(CCN3CCOCC3)C2c2cccnc2)s1 (stereo unspecified) > 76.9 µM
CCOc1cc(N2CCOCC2)c(OCC)cc1NC(=O)c1ccc(=O)n(Cc2ccccc2)n1 > 76.9 µM
CC(=O)Nc1cccc(-c2nnc3n2CC(C)S3)c1 (stereo unspecified) > 76.9 µM
COc1cc(NS(=O)(=O)c2ccc(OC)c(OC)c2)cc(OC)c1 > 76.9 µM
Cc1c(NC(=O)CSc2ccccn2)c(=O)n(-c2ccccc2)n1C > 76.9 µM
CCC(=O)Nc1cccc(NC(=O)CSc2nnnn2C2CCCC2)c1 > 76.9 µM
Cc1cc(=O)oc2cc(OCC3CC(c4ccc(N(C)C)cc4)=NO3)ccc12 (stereo unspecified) > 76.9 µM
O=C(Nc1ccc(F)cc1F)c1cc2n(n1)C(C(F)(F)F)C1CCCCC1N2 (stereo unspecified) > 76.9 µM
COc1cc2cc(CN(Cc3nnnn3Cc3ccccc3)CC3CCCO3)c(=O)[nH]c2cc1OC (stereo unspecified) > 76.9 µM
COC(=O)Nc1sc2c(c1C(N)=O)CCCCCC2 > 76.9 µM
O=C1CC(c2ccc(S(=O)(=O)NCCOc3ccccc3)cc2)CN1 (stereo unspecified) > 76.9 µM
CNC(=O)N(O)C1N(C)C(=O)N(Cc2ccccc2)C1(C)C (stereo unspecified) > 76.9 µM
c1ccc(-n2ncc3c(N4CCN(c5ccccn5)CC4)nc(N4CCOCC4)nc32)cc1 > 76.9 µM
COc1ccc2oc(C)c(NC(C)=O)c2c1 > 76.9 µM
CSc1nnc(-c2ccccc2)n1C > 76.9 µM
COc1ccccc1C(=O)Nc1ccccc1N1CCN(S(C)(=O)=O)CC1 > 76.9 µM
COC(=O)Cn1cc(C(=O)OC)c2ccccc21 > 76.9 µM
Cn1ccnc1SCc1cc(=O)[nH]c2ccccc12 > 76.9 µM
COc1ccc(S(=O)(=O)N2CCCN(CC(=O)Nc3ccc4c(c3)OCO4)CC2)cc1 > 76.9 µM
O=C(NC1CCCCCC1)C1CC(=O)N(Cc2ccccc2)C1 (stereo unspecified) > 76.9 µM
CCn1c(SCC(=O)NCc2cccs2)nnc1-c1ccco1 > 76.9 µM
O=C(CN1C(=O)NC(Cc2ccccc2)C1=O)Nc1ccccc1 (stereo unspecified) > 76.9 µM
COc1cccc(C(=O)Nc2ccccc2N2CCOCC2)c1 > 76.9 µM
CSc1ccccc1NC(=O)c1cccs1 > 76.9 µM
C=CCn1c(SCC(=O)Nc2ccc3c(c2)OCCO3)nnc1-c1ccco1 > 76.9 µM
CCOC(=O)c1[nH]nc(-c2c(O)cc(C)cc2O)c1-c1csc(C)n1 > 76.9 µM
COc1ccccc1OCCC(=O)OCC(=O)NC(=O)NC(C)(C)C > 76.9 µM
COc1ccc(CN2C(=O)CN=C2Nc2cccc(C)c2C)cc1 > 76.9 µM
Cc1cc(NC(=O)C2CCCCC2)nc2c1c(=O)oc1ccccc12 > 76.9 µM
O=C(OCC(CO)OC(CO)n1ccc(=O)[nH]c1=O)c1ccccc1 (stereo unspecified) > 76.9 µM
Cc1ccccc1CNS(=O)(=O)c1ccc2c(c1)OCCO2 > 76.9 µM
CC(=O)NC(CCS(C)(=O)=O)C(=O)Nc1nc(C)cs1 (stereo unspecified) > 76.9 µM
O=c1[nH]c2ccc(S(=O)(=O)N3CCN(C4CCCCC4)CC3)cc2[nH]c1=O > 76.9 µM
CCOC(=O)NC(=O)CSc1nc(C)cc(C)c1C#N > 76.9 µM
COc1ccccc1C(=O)NCCc1nc2ccccc2n1C > 76.9 µM
COc1ccc(C)cc1-n1nnnc1SCn1nnc2ccccc2c1=O > 76.9 µM
O=C(O)c1ccc(NC(=O)C2(c3ccccc3)CCOCC2)cc1 > 76.9 µM
CC(C)c1nc2oc3c(NCc4ccccn4)ncnc3c2c2c1COC(C)(C)C2 > 76.9 µM
Cc1cc(C)nc(NC2=NCCN2C(=O)Nc2ccc(Cl)c(Cl)c2)n1 > 76.9 µM
CCn1c(=O)c2c(nc(SCc3ccccn3)n2C)n(C)c1=O > 76.9 µM
COc1cc2c(C(=O)NCCCOC(C)C)cn(CC(C)C)c(=O)c2cc1OC > 76.9 µM
CNc1oc(C)nc1S(=O)(=O)c1ccc(C)cc1 > 76.9 µM
COc1ccc(CCNC(=O)CSc2nc(-c3ccco3)cc(C(F)(F)F)n2)cc1OC > 76.9 µM
CN(C)CCCNCCCNC(=O)c1ccccn1 > 76.9 µM
COc1ccc(OC)c(CN2CCCC(C(=O)N3CCCCC3)C2)c1 (stereo unspecified) > 76.9 µM
COc1ccccc1N1CCN(C(=O)C2C3C=CC4(CN(Cc5ccccc5Cl)C(=O)C24)O3)CC1 (stereo unspecified) > 76.9 µM
CC(C)(C)c1[nH]nc2c1C(c1ccc(OC(=O)c3ccco3)cc1)C(C#N)=C(N)O2 (stereo unspecified)
CCCOP(=O)(c1ccc(N(C)C)cc1)C(O)c1cc(OC)c(OC)c(OC)c1 (stereo unspecified) > 76.9 µM
CCCCNC(=O)C1CCCN(S(=O)(=O)c2ccc(-n3cnnn3)cc2)C1 (stereo unspecified) > 76.9 µM
COc1nc(-c2ccccc2)ccc1-c1noc(C)n1 > 76.9 µM

From PubChem BioAssay AID360 (National Center for Advancing Translational Sciences (NCATS), 2006)
